{"source": "PubChem BioAssay AID686979", "about": "(National Center for Advancing Translational Sciences (NCATS), 2013)", "note": "About 50,000 (12%) of roughly 420,000 compounds were called active. This list was built around the results that the source calls inconclusive (neither active nor inactive); the mix of calls is not that of the screen. Calls come from the whole dose curve; as a rule, active = well fitted inhibition curve with a large enough effect; inconclusive = small, poorly fitted or top-dose-only effect; inactive = flat fitted curve, though single readings scatter. Potencies of inconclusive entries are left out as doubtful fits. % is set by controls: 0 for no effect and ±100 for the full control effect; potency is the fitted concentration of half-maximal effect; tags give direction and shape of the fitted curve."}
{"test": "qHTS for Inhibitors of human tyrosyl-DNA phosphodiesterase 1 (TDP1): qHTS in cells in presence of CPT; note: nearly all actives have a fitted effect of over 55% in size", "settings": "chicken DT40 Tdp1-/-;hTDP1 cells + 20 nM CPT, ATP luminescence, 48 h; activity change, negative = growth inhibition: at 46.2 µM (top of the series) unless noted", "outline": "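Cell growth measured by CellTiter-Glo luminescence after a minimum 48 h, 37 C compound exposure with 20 nM CPT in Tdp1-knockout DT40 cells stably expressing hTDP1, seeded 400/well; qHTS titration format.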"}
{"smiles": "CCOC(=O)C1=C(C)OC(N)=C(C#N)C1c1ccccc1", "note": "(configuration not stated)", "Potency": "inconclusive [inhibitor, single point]"}
{"smiles": "CN1CCN(C(CNC(=O)C(=O)Nc2ccc3c(c2)OCO3)c2ccc(F)cc2)CC1", "note": "(configuration not stated)", "activity change, negative = growth inhibition": "inactive: 7.14%"}
{"smiles": "COc1ccc(C(=O)Cn2c(N3CCCCC3)nc3c2c(=O)n(C)c(=O)n3C)cc1OC", "activity change, negative = growth inhibition": "inactive: -14.7%"}
{"smiles": "COc1cccc(N2CCN(C(=S)Nc3cc(C)cc(C)c3)CC2)c1", "Potency": "active: 6.51 µM"}
{"smiles": "COc1cccc(N2CCN(C(=O)c3cnn(C(C)(C)C)c3C3CCN(C(=O)OC(C)(C)C)CC3)CC2)c1", "Potency": "inconclusive [inhibitor, single point]"}
{"smiles": "O=C(c1ccc2c(c1)CCN2S(=O)(=O)c1ccccc1)N1CCN(c2ccc(F)cc2)CC1", "Potency": "active: 23.1 µM"}
{"smiles": "COc1ccccc1CN1CCN(Cc2ccc3ccccc3c2)CC1", "Potency": "inconclusive [inhibitor, single point]"}
{"smiles": "COc1ccc(/C=N/NC(=O)COc2ccc(Cl)cc2Cl)cc1Cn1nc(C)cc1C", "Potency": "inconclusive [inhibitor, partial curve]"}
{"smiles": "Cn1c(SCC(=O)Nc2ccccc2F)nc2c(c1=O)SCC2", "Potency": "inconclusive [inhibitor, partial curve]"}
{"smiles": "COc1cccc(NC(=O)CN2C(=O)NC(Cc3c[nH]c4ccccc34)C2=O)c1", "note": "(configuration not stated)", "Potency": "inconclusive [inhibitor, single point]"}
{"smiles": "N#CC(C#N)c1ccnc2ccccc12", "Potency": "inconclusive [inhibitor, partial curve]"}
{"smiles": "Nc1cccc(-c2cn3cccnc3n2)c1", "Potency": "active: 20.6 µM"}
{"smiles": "COc1ccc(S(=O)(=O)N2CCC(C(=O)Nc3ccc(S(=O)(=O)N4CCCC4)cc3)CC2)cc1OC", "Potency": "inconclusive [inhibitor, single point]"}
{"smiles": "COc1ccc(OCCn2cc(C(=O)C3CCCCC3)c3ccccc32)cc1", "Potency": "inconclusive [inhibitor, single point]"}
{"smiles": "COC(=O)[C@H](CCSC)NC(=O)N1CCC(C)CC1", "activity change, negative = growth inhibition": "inactive: -5.36%"}
{"smiles": "Cc1ccc(NC(=O)CSc2nc3ncccc3[nH]2)cc1F", "Potency": "inconclusive [inhibitor, single point]"}
{"smiles": "COC(=O)c1c(NC(=O)c2ccc(C)o2)sc2c1CCCCC2", "activity change, negative = growth inhibition": "inconclusive: -31.5% [inhibitor]"}
{"smiles": "CC(C)c1ccc(NC(=O)c2cc3c([nH]c2=O)CC(C)(C)CC3=O)cc1", "Potency": "inconclusive [inhibitor, single point]"}
{"smiles": "COc1ccc(OC2CCN(C(=O)Nc3ccc(C)cc3)CC2)cc1", "activity change, negative = growth inhibition": "inactive: -26.4%"}
{"smiles": "O=C(NCC(c1cccs1)N1CCOCC1)c1ccccc1NS(=O)(=O)c1ccc(Cl)cc1", "note": "(configuration not stated)", "Potency": "inconclusive [inhibitor, single point]"}
{"smiles": "COc1ccc(SC[C@H](CC(C)C)N2CCN(C)CCC2=O)cc1", "Potency": "inconclusive [inhibitor, single point]"}
{"smiles": "O=C(NCc1ccc(Cl)cc1)C(=O)Nc1ccc(Br)cc1", "activity change, negative = growth inhibition": "inactive: -0.0891%"}
{"smiles": "O=C(OCc1cn([C@@H]2CN(CC3CCCCC3)[C@@H](c3ccccc3)C[C@H]2O)nn1)c1ccccc1", "Potency": "inconclusive [inhibitor, single point]"}
{"smiles": "COc1ccc(S(=O)(=O)N2CCCC2c2cccs2)cc1", "note": "(configuration not stated)", "Potency": "active: 5.8 µM"}
{"smiles": "CN(C(=O)CSc1nc2cc([N+](=O)[O-])ccc2n1-c1ccc(F)cc1)C1CCS(=O)(=O)C1", "note": "(configuration not stated)", "Potency": "inconclusive [inhibitor, partial curve]"}
{"smiles": "CC(C)(C)c1ccc(OCc2nc(-c3ccccn3)no2)c(Br)c1", "Potency": "inconclusive [inhibitor, single point]"}
{"smiles": "CC(C)(C)OC(=O)N/N=C/c1cn(-c2ccccc2)nc1-c1cccnc1", "Potency": "inconclusive [inhibitor, single point]"}
{"smiles": "Cc1c(Br)c([N+](=O)[O-])nn1C(C)C(=O)N1CCCc2ccccc21", "note": "(configuration not stated)", "Potency": "inconclusive [inhibitor, single point]"}
{"smiles": "CCc1cccc(NC(=O)Cn2c(=O)n(Cc3ccccc3)c(=O)c3c2c2cc(OC)ccc2n3C)c1", "Potency": "inconclusive [inhibitor, single point]"}
{"smiles": "COc1ccccc1NS(=O)(=O)c1ccc(NN=C2CCCCC2)c([N+](=O)[O-])c1", "Potency": "active: 18.4 µM"}
{"smiles": "CCOC(=O)c1cc2c(OC)c(OC)ccc2c2[nH]cc(C#N)c(=O)c12", "activity change, negative = growth inhibition": "inactive: -28.9%"}
{"smiles": "COc1ccc(N2C(=O)[C@@H]3C(c4cccnc4)=NO[C@@H]3C2=O)cc1", "Potency": "inconclusive [inhibitor, single point]"}
{"smiles": "O=C(NC1CCN(S(=O)(=O)c2ccccc2)CC1)c1cccc(F)c1", "activity change, negative = growth inhibition": "inactive: 1.57%"}
{"smiles": "Cc1c(-c2ccccc2)c(P(=O)(N2CCOCC2)N2CCOCC2)c2ccccn12", "Potency": "active: 25.9 µM"}
{"smiles": "CC(C)Nc1nc(-c2ccccn2)nc(-c2ccccc2)c1C#N", "Potency": "inconclusive [inhibitor, single point]"}
{"smiles": "COC(=O)[C@@]12C[C@@H](CC(=O)NCCc3ccccc3OC)C(=O)N(Cc3ccco3)C1=CCC(C)(C)C2", "Potency": "inconclusive [inhibitor, single point]"}
{"smiles": "CN(CC1CCCO1)S(=O)(=O)c1ccc(C(=O)Nc2ccc([N+](=O)[O-])cc2)cc1", "note": "(configuration not stated)", "Potency": "active: 23.1 µM"}
{"smiles": "CCOC(=O)C(C(=O)Nc1cccc(C)n1)C1CCCCC1", "note": "(configuration not stated)", "Potency": "inconclusive [inhibitor, partial curve, poor fit]"}
{"smiles": "CN(C)S(=O)(=O)c1ccc2c(c1)C(=NNC(N)=O)c1cc(S(=O)(=O)N(C)C)ccc1-2", "Potency": "active: 16.4 µM"}
{"smiles": "CC(C)CCNC(=O)C1CC(c2cccc(F)c2)=NO1", "note": "(configuration not stated)", "activity change, negative = growth inhibition": "inconclusive: -14.8% [inhibitor]"}
{"smiles": "COc1ccc(S(=O)(=O)N2CCC(C(=O)N3CCN(c4ccccc4OC)CC3)CC2)cc1", "Potency": "inconclusive [inhibitor, single point]"}
{"smiles": "CCCCCCSc1cccc(-c2nc3ccc(C)cn3c2NC2CCCCC2)c1", "Potency": "inconclusive [inhibitor, single point]"}
{"smiles": "CC(=O)Oc1ccccc1C(=O)C=Cc1cccc([N+](=O)[O-])c1", "Potency": "active: 10.3 µM"}
{"smiles": "CCc1ccccc1NC(=O)Cn1c(-c2nonc2N)nc2ccccc21", "activity change, negative = growth inhibition": "inactive: 0.539%"}
{"smiles": "CCOc1ccc2oc(C(=O)N(C)CCc3ccc(OC)c(OC)c3)c(C)c2c1", "Potency": "active: 20.6 µM"}
{"smiles": "Cc1noc(C)c1COc1ccccc1C(=O)N(C)Cc1ccc(F)cc1", "Potency": "inconclusive [inhibitor, single point]"}
{"smiles": "CCC1=NN(C(=O)c2ccc(Cl)cc2)C(O)(c2ccc(C)cc2)C1", "note": "(configuration not stated)", "Potency": "inconclusive [inhibitor, single point]"}
{"smiles": "O=C(NCCc1csc(-c2ccc(Cl)cc2)n1)c1cccs1", "Potency": "inconclusive [inhibitor, single point]"}
{"smiles": "C[C@H](NC(=O)c1[nH]cnc1C(=O)Nc1ccc(Cl)cc1)c1ccccc1", "Potency": "inconclusive [inhibitor, single point]"}
{"smiles": "CCn1cc(CCCC(=O)NCc2ccc(OC)cc2)c2ccccc21", "Potency": "inconclusive [inhibitor, partial curve]"}
{"smiles": "Cc1ccc([C@@H]2[C@@H]3C(=O)N(c4ccccc4)C(=O)[C@@H]3[C@]3(C)C(=O)N(Cc4ccccc4)CC(=O)N23)o1", "Potency": "inconclusive [inhibitor, single point]"}
{"smiles": "COc1ccc(Cc2nnc(SCc3c(C)noc3C)n2C2CCCCC2)cc1OC", "Potency": "inconclusive [inhibitor, partial curve]"}
{"smiles": "CNC(=S)NC1CC2CCC(C1)N2Cc1ccccc1", "note": "(configuration not stated)", "activity change, negative = growth inhibition": "inactive: -4.42%"}
{"smiles": "Cc1cc(N2CCN(Cc3nc(-c4ccc(Cl)cc4)oc3C)CC2)cc(C)n1", "Potency": "active: 11.6 µM"}
{"smiles": "COC(=O)[C@]12CCCCC=C1N(Cc1ccco1)C(=O)[C@H](CC(=O)NCC1CCCCC1)C2", "Potency": "inconclusive [inhibitor, single point]"}
{"smiles": "Cc1cc(C)nc(Sc2ccc3nnc(C(F)(F)C(F)(F)C(F)(F)F)n3n2)n1", "activity change, negative = growth inhibition": "inactive: -8.06%"}
{"smiles": "O=c1cc(CN2CCN(Cc3ccccc3)CC2)c2cc3c(cc2o1)CCC3", "Potency": "inconclusive [inhibitor, single point]"}
{"smiles": "O=S(=O)(Nc1ccc2oc3c(c2c1)CCCC3)c1cc(Cl)ccc1Cl", "activity change, negative = growth inhibition": "inactive: -29.8%"}
{"smiles": "Cc1cccc2nc(COc3ccc4ccccc4c3Br)cn12", "Potency": "inconclusive [inhibitor, single point]"}
{"smiles": "CS(=O)(=O)N1Cc2cc(C(=O)NCC3CC3)nc(-c3cccc(-c4cccnc4)c3)c2[C@@H]1CCO", "Potency": "inconclusive [inhibitor, single point]"}
{"smiles": "O=C(O)C1CC2CCC1CC2", "note": "(configuration not stated)", "activity change, negative = growth inhibition": "inactive: 0.981%"}
{"smiles": "COc1ccc(C)cc1S(=O)(=O)N1CCN(Cc2ccccc2)CC1", "Potency": "inconclusive [inhibitor, partial curve]"}
{"smiles": "CC(=O)c1c(C)[nH]c(C(=O)OCC(=O)N2CCN(S(=O)(=O)c3ccc(C)cc3C)CC2)c1C", "Potency": "inconclusive [inhibitor, partial curve]"}
{"smiles": "CCN(C(=O)Cn1nc(Cc2cccnc2)c2ccccc2c1=O)c1ccccc1F", "Potency": "inconclusive [inhibitor, single point]"}
{"smiles": "CC(O)(c1cccc(F)c1)c1nc(-c2cccc(F)c2)cs1", "note": "(configuration not stated)", "Potency": "inconclusive [inhibitor, single point]"}
{"smiles": "Cc1cc(C)n(-c2nc3ccccc3nc2N2CCN(S(=O)(=O)c3ccc4ccccc4c3)CC2)n1", "Potency": "inconclusive [inhibitor, partial curve]"}
{"smiles": "O=C1CCCC2=C1C(c1ccc(Cl)cc1)C1C(=O)c3ccccc3C1=N2", "note": "(configuration not stated)", "Potency": "inconclusive [inhibitor, single point]"}
